Results as given in the RNAGym collection of RNA variant scans (doi:10.7554/elife.90254).
Read counts are not given, so values of variants with three or more changes are uncertain.

B1: OR4K15 (parent)
chain: GUUAACGGUCAUAGGCCAUGGAAACUAGGAGCACCAUUUCGCUGCCAGUGAAGAAAUGAACAAAGAAAAUCUGGGCCAGGCAGGCAUCAAAAGAAAUAGUCUUGCGCUCAACCAGAAAGUCUGUAAUCAUUUUAAGGGUA

Variants of: B1
Test: self-cleavage, relative activity (ratio to wild type); higher = more cleavage; in vitro, sequencing; the parent is a self-cleaving ribozyme

Row | Variant | self-cleavage
1 | A18G C109U A114G | 0.54
2 | A18G U49G A92G U103C A117G | 0.5
3 | A18G U19G C76U | 0.22
4 | A18G U43A A69G U108C | 0.05
5 | A18G U43C A64U A90G C128A | 0.77
6 | A18G A33G A54U | 1.61
7 | A18G A82G A95C | 0.36
8 | A18G A36G A64U G93U | 1.31
9 | A18G A23C A36G A117U U120A U132G | 1.33
10 | A18G A60G A66U A114G | 0.06
11 | A18G A52G C107U A111U | 0.01
12 | A18G A51G A62G | 1.18
13 | A18C U39C A52G A66G A89G A111G | 0.07
14 | A18G A82G A90U U108C A126U U130C | 0.04
15 | A18C A62G A92G U122A | 0.51
16 | A18G U37C U43C A91G A94G | 1.78
17 | A18G A24G A60U A64G A92G U108C A118G | 0.01
18 | A18G A36G U43C A52G U103A U130C | 0.13
19 | A18G A23G C45U A47U A51U A55G A125U | 0.71
20 | A18C C40A A82G | 0.84
21 | A18G A82U U127A | 0.4
22 | A18G A91G A140G | 1.21
23 | A18G U43C A68G | 1.24
24 | A18C A118G U130C | 0.06

Row | Variant | self-cleavage
25 | A18G U43A A59U | 1.09
26 | A18G U38A A52U A69G | 1.34
27 | A18G G75A U103C | 0.14
28 | A18G A82G U108C A126G | 0.01
29 | A18G A91G A111G A114G | 0.02
30 | A18G A47U A116G | 0.49
31 | A18G A110G U124C | 0.11
32 | A18G A69G A95G A96G | 1.22
33 | A18G U70C A82G A92G | 0.36
34 | A18G A30U A140G | 2.46
35 | A18G U43A A64G G83A | 1.78
36 | A18G A24G U43C | 0.94
37 | A18G G58A A114U | 0.02
38 | A18G U39A A89G A90G A95G | 1.54
39 | A18G U19A U43C C121U | 1.5
40 | A18G A56G U120C | 0.45
41 | A18G U19C A52G A117G A135G | 0.87
42 | A18G U19C A55G | 1.21
43 | A18G A55G A90U A125G | 0.36
44 | A18G G44A A55G U72C | 0.49
45 | A18G U38C A111U | 0.19
46 | A18G A22G U57C A60G A68G A95G C128U A135G | 0.74
47 | A18G A33U A55G A66G | 1.05
48 | A18G A51G U103C U132C U133A | 1.54

Row | Variant | self-cleavage
49 | A18G A36G A92G C105U | 0.38
50 | A18G C71U A126G U132C | 0.05
51 | A18G A22G A59G A90G | 1.04
52 | A18G C42U A52G A60G U87C U97C A126G | 0.9
53 | A18G A62G A96G C105U | 0.09
54 | A18G A47U A64U A140C | 0.51
55 | A18G A23G A27G U37A U72C | 0.48
56 | A18G U87C A89G | 1.44
57 | A18G U70C A116G U132A U133C | 1.69
58 | A18G A23G A51G A68U U108C A118G U127C | 0.04
59 | A18G A33G A63G A78G U102C | 0.47
60 | A18G A64C A98G U102C | 1.3
61 | A18G A22C A23G U57A A63G A134G | 1.17
62 | A18C U38G A111G A117G U132A | 0.01
63 | A18G A24G U39C A78G | 0.48
64 | A18G A30G U103A A126C | 0.1
65 | A18G U49G A52G U103C A116G U122G G138A | 0.21
66 | A18G A69G G106A G137A | 0.02
67 | A18G U70C U120C | 0.27
68 | A18G A67U A111G | 0.01
69 | A18G A52G C121U | 2.69
70 | A18G A68G U87C A91G | 0.94
71 | A18C A94G A116G U122A | 0.44
72 | A18G A78C U132C U139A | 0.2

Row | Variant | self-cleavage
73 | A18G A24U C25U U57A A118G | 0.73
74 | A18G U37C U108C U131C | 0.02
75 | A18G A82U A140U | 0.16
76 | A18C U19C A22U A64G | 1.25
77 | A18G C76U A95G U103C | 0.02
78 | A18G A24G U102C U132A | 0.73
79 | A18G G21A U43C A116G | 1.58
80 | A18G A91G A92U A114U A116G U132C | 0.01
81 | A18G U43C A62G U100A | 0.64
82 | A18G A30G A55G A63G A92G | 0.48
83 | A18G A60G A92G | 1.24
84 | A18G A22G U38C A67G A90G A116G | 0.14
85 | A18G U38C U100C | 0.76
86 | A18G A47G A69G A117G U122C | 0.38
87 | A18G A47U A111G A126G | 0.02
88 | A18G U38A A117G A129G | 1.22
89 | A18G A67G A68G A86G | 0.88
90 | A18C A86G A135G | 1.32
91 | A18G A55G A92G A94G U100C | 1.18
92 | A18G U26A A91G A98G U108C | 0.01
93 | A18G U37C A54G | 0.78
94 | A18G A24U A78U A116U A117G | 0.04
95 | A18G A52G C128U | 1.82
96 | A18G U38C A59G A92G A98G A116G | 0.28

Row | Variant | self-cleavage
97 | A18G U19C A82G A92G U127C A129U | 0.23
98 | A18G A59G U120C U127C | 0.35
99 | A18G A111G A114G | 0.01
100 | A18G A68G A82G A90G A118G | 0.09
101 | A18G U37C U87C | 1.86
102 | A18G A51G A95G A110G | 0.13
103 | A18G A23G U87C | 1.02
104 | A18G U57C A94G A110U A117G A125G | 1.08
105 | A18G U39C A51U A64G A116G | 1.55
106 | A18G A27G A63G A110U A116U | 0.24
107 | A18G A86G U100C | 1.18
108 | A18G A64U A126G | 1.78
109 | A18G U19A U49G A89G | 1.46
110 | A18G A55U U127C | 1.23
111 | A18G A27U U102C | 1.38
112 | A18G A47G A116U | 0.51
113 | A18G U43G A59G A116G A129C | 0.49
114 | A18G A36U A78G U103A | 0.23
115 | A18C C40A A59G U122C | 0.59
116 | A18G U38A A67G G83A A91G A95G U102C U124C | 0.22
117 | A18G U43A U57C A78G A90G | 0.38
118 | A18G A60G A91G | 0.7
119 | A18C A92U A94G A118G | 0.18
120 | A18G A22U U39A A95G | 2.1

Row | Variant | self-cleavage
121 | A18C A59G A62G A64G | 1.09
122 | A18G U26C A27U C61U A110G | 0.25
123 | A18G A95G U102C | 2.22
124 | A18G A96G A126G | 1.62
125 | A18G A51G A64U A94G | 1.15
126 | A18G A27C A116G | 0.74
127 | A18G A27G U38C A111G A129G | 0.05
128 | A18G A63G A110C | 0.39
129 | A18G G104A U120C | 0.02
130 | A18G A94G A96G | 1.37
131 | A18G U37C A59U | 2.47
132 | A18G A33G A52U A55G A78U | 0.11
133 | A18G A56G A68G | 0.4
134 | A18C U100C U102C A111G A116G A135G | 0
135 | A18C C46A A91G | 0.84
136 | A18G A24G U120C U139C | 0.79
137 | A18G A24G A56G A59U A111G C113U A135G A140G | 0.01
138 | A18G U19A U38A | 1.44
139 | A18G U37C U131C | 0.79
140 | A18G A22G A67G A110G | 0.28
141 | A18G U70C U108C | 0.01
142 | A18G A22G A89U A94G | 0.41
143 | A18G A96G U139C | 0.58
144 | A18G U39C A68G U87C | 1.26

Row | Variant | self-cleavage
145 | A18G A51G U122C | 0.64
146 | A18G A91G A94G | 1.34
147 | A18G A64G A67G A94G | 1.62
148 | A18G U19C A82U | 0.34
149 | A18G A23G A68G A90G | 1.6
150 | A18G A51G A94G | 0.79
151 | A18G U39C A56G A92U | 1.2
152 | A18G A55U U100A U131C | 0.42
153 | A18G A82U U132C U139C | 0.05
154 | A18C U87C A91G A116G | 0.05
155 | A18G A82U A94U U122A | 0.12
156 | A18G A69G A118G | 1.39
157 | A18G A24G A67G A89G A91G A92G U124C | 0.65
158 | A18G A67G A114G | 0.29
159 | A18G A64G U108C A135G | 0.02
160 | A18G A59G A95G A111G | 0.08
161 | A18G A90G U100C | 2.03
162 | A18G A92G A126G | 0.73
163 | A18C A86G U122C | 0.62
164 | A18G A64G A78C U102G | 0
165 | A18G A51G A116G | 0.35
166 | A18G C45G A52G A66G | 1.33
167 | A18G G41A A64G | 0.98
